# Assay results reported in the antibiotic and cytotoxicity screens of Wong et al. (2023).
# The other results are listed elsewhere or left out.
# Test system: HepG2
# Assay: cytotoxicity call (relative viability < 0.9)
# Details: 10 µM
row,SMILES,cytotoxicity call
1,C[C@H]1CCCCO[C@H](CN(C)C(=O)CCCN(C)C)[C@@H](C)CN([C@@H](C)CO)C(=O)c2cc(NS(C)(=O)=O)ccc2O1,inactive
2,OC[C@H]1O[C@@](CO)(O[C@H]2O[C@H](CO)[C@@H](O)[C@H](O)[C@H]2O)[C@@H](O)[C@@H]1O,inactive
3,C[C@H](CO)N1C[C@H](C)[C@@H](CN(C)S(=O)(=O)c2ccc(F)cc2)OCCCC[C@H](C)Oc2ccc(NS(C)(=O)=O)cc2C1=O,inactive
4,c1c[nH]cn1,inactive
5,COCCn1cc2c(n1)[C@H](CNC(=O)COC)OCC2,inactive
6,COc1cccc(S(=O)(=O)N(C)C[C@@H]2Oc3ncc(C#CC(C)C)cc3C(=O)N([C@@H](C)CO)C[C@@H]2C)c1,inactive
7,Cc1noc(C)c1S(=O)(=O)Nc1ccc2c(c1)C(=O)N([C@H](C)CO)C[C@H](C)[C@H](CN(C)S(C)(=O)=O)OCCCC[C@@H](C)O2,inactive
8,COC(=O)C[C@@H]1CC[C@H]2[C@@H](COC[C@H](O)CN2S(=O)(=O)c2ccccc2C)O1,inactive
9,C[C@@H]1CN([C@@H](C)CO)C(=O)c2cc(NC(=O)c3ccccc3)ccc2O[C@@H](C)CCCCO[C@@H]1CN(C)C(=O)NC1CCCCC1,inactive
10,CN(C)[C@H]1CS(=O)(=O)C[C@@H]1N(C)C,inactive
11,CO[C@H]1CN(C)C(=O)c2ccc(NC(=O)Nc3cccc(Cl)c3)cc2OC[C@H](C)N(C(=O)Nc2c(C)noc2C)C[C@@H]1C,inactive
12,CCCCCCCCC=CCCCCCCCC(=O)[O-].[NH3+]CCO,inactive

# Test system: S. aureus RN4220
# Assay: growth inhibition call (relative growth <= 0.2)
# Details: 50 µM
row,SMILES,growth inhibition call
1,C[C@@H]1CCCCO[C@H](CN(C)Cc2ccncc2)[C@@H](C)CN([C@H](C)CO)C(=O)c2cc(NC(=O)CCCCCC(=O)Nc3ccccc3N)ccc2O1,inactive
2,Cc1cc(N)c2ccccc2[n+]1CCCCCCCCCC[n+]1c(C)cc(N)c2ccccc21.[Cl-].[Cl-],inactive
3,COc1cnc(SC)n(C)c1=O,inactive
4,C[C@@H]1CN([C@@H](C)CO)C(=O)c2cc(C#Cc3cccnc3)cnc2O[C@@H]1CN(C)S(C)(=O)=O,inactive
5,C/C=C/c1ccc2c(c1)O[C@H](CN(C)C(=O)c1ccc3c(c1)OCO3)[C@@H](C)CN([C@@H](C)CO)S2(=O)=O,inactive
6,COc1ccc(NC(=O)Nc2ccc3c(c2)C(=O)N([C@@H](C)CO)C[C@@H](C)[C@H](CN(C)S(=O)(=O)c2cn(C)cn2)O3)cc1,inactive
7,C[C@H]1CCCCO[C@@H](CN(C)C(=O)NC2CCCCC2)[C@@H](C)CN([C@@H](C)CO)C(=O)c2cc(NC(=O)c3ccccc3)ccc2O1,inactive
8,C=CC(C1=CC(=O)C(OC)=CC1=O)c1ccccc1 (configuration not stated),inactive
9,Cc1noc(C)c1S(=O)(=O)N(C)C[C@@H]1Oc2ccc(NC(=O)c3ccncc3)cc2CC(=O)N([C@@H](C)CO)C[C@@H]1C,inactive
10,COc1ccc(NC(=O)Nc2ccc3c(c2)C(=O)N([C@H](C)CO)C[C@H](C)[C@H](CN(C)S(=O)(=O)c2ccc(C)cc2)OCCCC[C@@H](C)O3)cc1,inactive
11,Cc1ccccc1-c1ccc2c(c1)O[C@H](CN(C)C(=O)Nc1ccc(C(F)(F)F)cc1)[C@H](C)CN([C@@H](C)CO)S2(=O)=O,inactive
12,Cc1noc(C)c1NC(=O)Nc1cccc2c1O[C@@H](CN(C)C(=O)NC(C)C)[C@H](C)CN([C@@H](C)CO)C2=O,inactive
13,Oc1ccccc1/N=C/c1ccncc1,inactive
14,CCCCN(CCCC)[NH2+][O-],inactive
15,CN1C(=O)c2cc(NC(=O)c3cccs3)ccc2OC[C@H]2O[C@H](CC(=O)NCCN3CCCCC3)CC[C@@H]21,inactive
16,COc1ccc(NC(=O)Nc2ccc3c(c2)C(=O)N([C@@H](C)CO)C[C@H](C)[C@@H](CN(C)S(=O)(=O)c2cn(C)cn2)O3)cc1,inactive
17,COc1ccc(S(=O)(=O)N(C)C[C@H]2Oc3cc(C#CC4CC4)ccc3S(=O)(=O)N([C@H](C)CO)C[C@H]2C)cc1,inactive
18,CC(C)CCC(=O)N1C[C@@H]2c3nc(N4CCOCC4)ncc3CS(=O)(=O)[C@H]2C1,inactive
19,CN(C)CCCCNC(=O)[C@@H]1C[C@@H]2C(=O)NCC(=O)N2[C@@H]1c1cccc(OCCO)c1,inactive
20,CC(=O)OCCc1nc(C(=O)NCc2ccc3c(c2)OCO3)cc2c1[C@@H](CCO)N([S@](=O)C(C)(C)C)C2,inactive

row,SMILES,growth inhibition call
1,Cc1cncc2cccc(S(=O)(=O)N[C@H]3CN[C@H](C(=O)NN)C3)c12,inactive
2,C[C@H](CO)N1C[C@H](C)[C@H](CN(C)Cc2ccc(Cl)c(Cl)c2)Oc2ccc(NC(=O)Nc3ccc4c(c3)OCO4)cc2CC1=O,inactive
3,CCc1cn([C@H]2C[C@@H](O)[C@@H](CO)O2)c(=O)[nH]c1=O,inactive
4,COC(=O)CCCCC(=O)c1[nH]c(=O)[nH]c1C,inactive
5,Cc1ccc(S[C@]2(C(=O)NCCN3CCOCC3)CC(=O)N(Cc3cc(C(F)(F)F)cc(C(F)(F)F)c3)[C@@H]2c2ccc(CO)cc2I)cc1,inactive
6,CCOC(=O)c1c(C)cc(O)c(C=O)c1O,active
7,COc1ccccc1C#Cc1ccc2c(c1)O[C@@H](CN(C)Cc1cccnc1)[C@H](C)CN([C@H](C)CO)S2(=O)=O,inactive
8,C[C@@H]1CN([C@H](C)CO)C(=O)c2cc(NC(=O)Nc3cccc4ccccc34)ccc2O[C@H]1CN(C)S(=O)(=O)c1ccc(F)cc1,inactive
9,C[C@H]1CCCCO[C@H](CN(C)C(=O)CCCN(C)C)[C@@H](C)CN([C@@H](C)CO)C(=O)c2cc(NS(C)(=O)=O)ccc2O1,inactive
10,OC[C@H]1O[C@@](CO)(O[C@H]2O[C@H](CO)[C@@H](O)[C@H](O)[C@H]2O)[C@@H](O)[C@@H]1O,inactive
11,C[C@H](CO)N1C[C@H](C)[C@@H](CN(C)S(=O)(=O)c2ccc(F)cc2)OCCCC[C@H](C)Oc2ccc(NS(C)(=O)=O)cc2C1=O,inactive
12,c1c[nH]cn1,inactive
13,COCCn1cc2c(n1)[C@H](CNC(=O)COC)OCC2,inactive
14,COc1cccc(S(=O)(=O)N(C)C[C@@H]2Oc3ncc(C#CC(C)C)cc3C(=O)N([C@@H](C)CO)C[C@@H]2C)c1,inactive
15,Cc1noc(C)c1S(=O)(=O)Nc1ccc2c(c1)C(=O)N([C@H](C)CO)C[C@H](C)[C@H](CN(C)S(C)(=O)=O)OCCCC[C@@H](C)O2,inactive
16,COC(=O)C[C@@H]1CC[C@H]2[C@@H](COC[C@H](O)CN2S(=O)(=O)c2ccccc2C)O1,inactive
17,C[C@@H]1CN([C@@H](C)CO)C(=O)c2cc(NC(=O)c3ccccc3)ccc2O[C@@H](C)CCCCO[C@@H]1CN(C)C(=O)NC1CCCCC1,inactive
18,CN(C)[C@H]1CS(=O)(=O)C[C@@H]1N(C)C,inactive
19,CO[C@H]1CN(C)C(=O)c2ccc(NC(=O)Nc3cccc(Cl)c3)cc2OC[C@H](C)N(C(=O)Nc2c(C)noc2C)C[C@@H]1C,inactive
20,CCCCCCCCC=CCCCCCCCC(=O)[O-].[NH3+]CCO,inactive
